Data on 112 compounds can be found in PubChem BioAssay AID488969 (Vanderbilt High Throughput Screening Facility, 2010).

The full ranking holds about 110,000 compounds; the median of “z-score” is about -0.1, and the highest 2% start at about 2. The list shows a part of the results. Activity calls are given as the source filed them.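 The calls were made as follows: active = z-score in the third read window above 3 or below -3; inactive = the rest.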

The experiment addresses Metabotropic glutamate receptor 8 (Rattus norvegicus) (UniProt P70579). Nature of the experiment: mGluR8 Gi/Go-coupled signaling modulation – cell-based, rat, thallium flux, HTS, primary screen (AID 488969). Particulars: HEK293 rat mGluR8, GIRK (G protein-gated inwardly rectifying potassium channel) thallium flux, FluoZin2; at 10 µM; stronger effect = higher value; submaximal glutamate (EC20) added with thallium.
Chain of UniProt P70579 (P70579 whole entry, looked up): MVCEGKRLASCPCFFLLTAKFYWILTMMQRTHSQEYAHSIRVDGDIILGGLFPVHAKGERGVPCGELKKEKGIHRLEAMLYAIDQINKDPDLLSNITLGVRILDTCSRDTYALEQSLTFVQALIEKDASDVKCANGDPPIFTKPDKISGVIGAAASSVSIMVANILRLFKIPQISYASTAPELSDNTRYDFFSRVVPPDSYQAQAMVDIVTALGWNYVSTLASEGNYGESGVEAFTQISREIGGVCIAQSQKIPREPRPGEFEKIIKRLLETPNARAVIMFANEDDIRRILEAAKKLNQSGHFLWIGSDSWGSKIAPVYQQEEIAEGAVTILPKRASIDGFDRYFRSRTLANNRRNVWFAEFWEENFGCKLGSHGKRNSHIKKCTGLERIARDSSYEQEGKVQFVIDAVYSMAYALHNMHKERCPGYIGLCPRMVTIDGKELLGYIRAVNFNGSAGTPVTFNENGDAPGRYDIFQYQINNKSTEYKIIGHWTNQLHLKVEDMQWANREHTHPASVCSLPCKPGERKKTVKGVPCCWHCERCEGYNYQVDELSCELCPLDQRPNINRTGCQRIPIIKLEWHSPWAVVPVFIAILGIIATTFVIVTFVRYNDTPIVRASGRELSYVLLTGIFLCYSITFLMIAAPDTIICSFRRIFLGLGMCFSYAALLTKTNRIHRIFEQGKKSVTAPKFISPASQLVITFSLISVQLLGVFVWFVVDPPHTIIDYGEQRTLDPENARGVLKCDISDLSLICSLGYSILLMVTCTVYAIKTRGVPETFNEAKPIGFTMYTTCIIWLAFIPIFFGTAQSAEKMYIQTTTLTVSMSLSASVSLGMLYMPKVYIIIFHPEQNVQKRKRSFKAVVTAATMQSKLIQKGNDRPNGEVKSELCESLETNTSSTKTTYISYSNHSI
For `Cc1oc2c(c1C(=O)Nc1cccc3ccccc13)CCCC2`, the z-score was -0.578.
To `O=C(NCCc1ccccn1)C1CC(=O)N(Cc2ccccc2Cl)C1` (configuration not stated) belongs -0.211.
For the compound `O=C(CSC1=NCCS1)Nc1cccc2ccccc12`, the z-score is -0.117.
With `CCOC(=O)C1=C(CSc2nc(-c3ccccc3)ccc2C#N)OC(N)=C(C#N)C1c1cccnc1` (configuration not stated), the z-score is -0.107.
Consider `CCCOP(=O)(c1ccc(N(C)C)cc1)C(O)c1cccnc1` (configuration not stated), for which the z-score worked out at 0.234.
In turn, `CN1C(=O)CC(N2CCN(CC(=O)N3CCCC3)CC2)C1=O` (configuration not stated) registered a z-score of 1.05.
For the compound `Cc1cc(OCCn2cc(/C(N)=N/O)c3ccccc32)ccc1Cl`, the z-score was -0.246.
For the compound `CCN(CC(=O)Nc1ccc2c(c1)OCCO2)C(=O)CC1CCCC1`, the z-score was -0.356.
With `COc1ccc(/C=C/C(=O)OCc2cc(=O)n3c(n2)sc2ccccc23)cc1` the figure was -0.421; with `Cc1ccc2ccc(C3C(=O)c4ccccc4C3=O)nc2c1`, -0.226; with `Cc1ccc(SC(C)C(=O)Nc2c(C)n(C)n(-c3ccccc3)c2=O)cc1` (configuration not stated), 0.00102.
Compound `CC1CCC(NC(=O)CC(C)(C)Cc2nc3ccccc3c(=O)[nH]2)CC1` (configuration not stated) displayed a z-score of -0.289.
In turn, `Cc1cccc(C)c1Oc1nc(-c2ccccc2)ncc1S(=O)(=O)c1ccccc1` registered a z-score of -0.0101.
Take `O=C(COc1ccc(Br)cc1)Nc1ccc([N+](=O)[O-])cn1`: the z-score is -0.114.
With `O=C(O)CNC(=O)C1COc2ccccc2O1` (configuration not stated), the z-score was -0.585.
To `CC(=O)Nc1ccc(-c2csc(NC(=O)C3CCN(S(=O)(=O)c4cccs4)CC3)n2)cc1` belongs -0.103; to `Nc1ccc2nc(-c3ccccc3)[nH]c2c1`, 1.19.
`Cc1cccc(C)c1NC(=O)CN(C)CC(=O)Nc1cc(Cl)ccc1C#N` registered a z-score of -0.401.
Compound `CCOC(=O)c1c(C)[nH]c(C(=O)OCC(=O)N2CCN(S(=O)(=O)c3ccccc3)CC2)c1C` yielded a z-score of -0.532.
`CC(=O)Nc1ccc(S(=O)(=O)NC(C(=O)O)C2=CCC=CC2)cc1` (configuration not stated) showed a z-score of 1.91.
Regarding `Cc1ccc(C(=O)CC(c2cccs2)S(=O)(=O)c2ccc(C)cc2)cc1` (configuration not stated), the z-score was -0.0995.
In turn, `O=C(/C=C/Nc1cccc([N+](=O)[O-])c1)c1cccs1` yielded a z-score of -0.294.
In turn, `Cc1ccccc1Cn1cc(/C=N/n2cnnc2)c2ccccc21` gave a z-score of 0.0847.
Turning to `COc1ccc(Cl)cc1NC(=O)CCN1CCN(c2ccccc2C)CC1`, the z-score was 0.282.
`CCOC(=O)c1ccc(NC(=O)CSc2nnc(-c3ccncc3)n2C)cc1` yielded a z-score of 0.118.
Compound `O=C(COC(=O)c1ccco1)NC1CCCCC1` showed a z-score of 0.913.
`CCOc1ccccc1C(=O)OCC(=O)Nc1ccc(N2CCCCC2)cc1` registered a z-score of 0.0751.
The compound `CCOc1ccc(S(=O)(=O)c2c(C(=O)c3ccc(C)cc3)cnc3cc4c(cc23)OCCO4)cc1` displayed a z-score of -0.72.
`COc1ccc(C2=Nn3c(nnc3C3CCCCC3)SC2)cc1OC`: the z-score was active: -3.1.
Take `CCOc1ccc(OCCOCCOc2c(Cl)cccc2Cl)cc1`: the z-score was -0.119.
In turn, `c1cnc(-c2nnc3n2CCCCC3)cn1` displayed a z-score of -0.278.
As for `COC(=O)c1cc(NCc2ccc3c(c2)OCO3)ccc1N1CCOCC1`, the z-score is -0.537.
With `Cc1cc(/C=N/n2c(COc3ccccc3C)nc3ccccc3c2=O)c(O)c([N+](=O)[O-])c1` the figure was -0.502.
`COc1ccc(C2N=C(c3ccccc3)NC(c3ccccc3)=N2)cc1` had a z-score of -0.384.
To `NNC(=O)C1=NOC(CNc2ncc(C(F)(F)F)cc2Cl)C1` (configuration not stated) belongs 0.279; to `CC(C)CCNC(=O)C(c1ccc(O)cc1)N(Cc1cccs1)C(=O)C1COc2ccccc2O1` (configuration not stated), -0.136; to `CCC1=NN(C(=O)Cc2ccc(OC)cc2)C(O)(C(F)(F)F)C1` (configuration not stated), -0.157.
With `Cc1nc(NC(N)=S)sc1C(=O)Nc1ccccc1`, the z-score was determined as 0.266.
To `O=C(c1ccccc1)N1CCCc2ccccc21` belongs active: 3.33; to `CCOC(=O)c1c(C)[nH]c(C(=O)OCC(=O)Nc2cc(C)ccc2OC)c1C`, 0.0146; to `CCOc1ccc(CCNS(=O)(=O)c2c(C)n[nH]c2C)cc1OCC`, -0.0316.
Take `O=C(OCc1ccccc1)c1cccc(-c2nnc(-c3ccccc3)o2)c1`: the z-score was -0.151.
With `CC(=O)Nc1ccc(S(=O)(=O)Oc2ccc3c(c2)C(C)=CC(C)(C)N3)cc1` the figure was -0.232.
In turn, `NS(=O)(=O)c1ccc(CCNC(=O)c2ccccc2[N+](=O)[O-])cc1` had a z-score of -0.167.
As to `CCN1/C(=C/c2ccc3cc(C)ccc3[n+]2CC)Sc2ccccc21`, the z-score worked out at 0.652.
Compound `COCC(=O)OCC(=O)Nc1cc(C)c(C)cc1[N+](=O)[O-]` yielded a z-score of -0.0881.
In turn, `Cc1ccc(CNC(=O)c2ccc(NS(=O)(=O)c3c(C)noc3C)cc2)cc1` displayed a z-score of -0.649.
As to `Cc1ccc(Cl)cc1NC(=O)Cn1cc2c(n1)CCCC2`, the z-score was -0.558.
In turn, `CC(=O)c1cc(NC(=O)c2ccc(C)cc2)c(=O)oc1/C=C/N(C)C` returned a z-score of -0.203.
To `CC(NC(=O)CC12CC3CC(CC(C3)C1)C2)C(=O)O` (configuration not stated) belongs -0.136; to `c1ccc2c(c1)[nH]c1c(NCC3CCCO3)ncnc12` (configuration not stated), -0.111; to `COc1cnn(C(C)(C)C)c(=O)c1Cl`, -0.0663.
`O=C(CN(c1ccc2c(c1)OCCO2)S(=O)(=O)c1ccccc1)NCC1CCCO1` (configuration not stated) had a z-score of 0.697.
As to `Cc1ccc(Cl)cc1NC(=O)c1ccc(NC(=O)CCC(=O)O)cc1`, the z-score was -0.169.
`Cc1ccc(N2CCN(C(=O)CNS(=O)(=O)c3ccc(Br)s3)CC2C)cc1` (configuration not stated) gave a z-score of 0.106.
`c1ccc(Cn2c(CNc3nc4ccccc4n3CCN3CCOCC3)nc3ccccc32)cc1` displayed a z-score of -0.591.
`O=C(Nc1ccc2oc(-c3ccccc3)nc2c1)c1ccco1` came in with a z-score of -0.345.
To `O=C1CC(c2ccc(S(=O)(=O)N3CCN(c4ccccc4)CC3)cc2)CN1` (configuration not stated) belongs -0.712.
As to `Cc1c(Cl)cccc1NC(=O)CCC(=O)NNC(=O)c1ccccc1Cl`, the z-score was -0.315.
Regarding `O=C(COc1ccccc1)Nc1nccs1`, the z-score worked out at 1.35.
In turn, `O=C1C2C3C=CC(CC3)C2C(=O)N1/N=C/c1ccccc1O` (configuration not stated) registered a z-score of -0.187.
With `CCCCOc1ccc(S(=O)(=O)NC(=O)NCc2ccc(OCCC)cc2)cc1`, the z-score is -0.658.
Compound `Nc1nc(-c2ccccc2)c(-c2ccccc2)s1` returned a z-score of 0.478.
For the compound `COC(=O)c1c(NC(=O)C2CC2)sc2c1CCCC2`, the z-score was -0.0615.
`COc1ccc(N2CCN(CCCNC(=O)c3cc4sccc4n3C)CC2)cc1` registered a z-score of -0.577.
`Cc1ccn2cc(CCNC(=O)c3ccc(Br)o3)nc2c1` yielded a z-score of -0.332.
For `COc1ccc(CN=C2NC(=O)CC(C(=O)Nc3cc(C)cc(C)c3)S2)cc1` (configuration not stated), the z-score is -0.0924.
With `O=c1c2ccccc2nc(-c2ccc(Cl)cc2)n1C1CCS(=O)(=O)C1` (configuration not stated), the z-score was -0.341.
As for `Cn1cc(CC(=O)NCCCN2CCCC2=O)c2ccccc21`, the z-score is 0.417.
With `CC(NO)/C(=N\O)c1cccs1` (configuration not stated) the figure was -0.105.
The compound `Cc1oc(C(=O)O)cc1CSCc1cc(C(=O)O)c(C)o1` displayed a z-score of 0.424.
As for `COc1ccc(CNC(=O)Cn2cc(C(F)(F)F)ccc2=O)cc1`, the z-score is -0.2.
`C/C(=N\NC(=O)CNC(=O)c1ccc2c(c1)OCO2)c1ccco1` yielded a z-score of 0.00413.
Compound `Cc1ccc(C2CC(c3cccs3)=NN2C(=O)CSc2nc3ccccc3o2)cc1` (configuration not stated) yielded a z-score of -0.0746.
To `Cc1ccc(Oc2nc(-c3ccccc3)ncc2S(C)(=O)=O)cc1` belongs -0.315.
On to `O=C1c2ccccc2CN1CCNS(=O)(=O)c1ccc2ccccc2c1`, for which the z-score worked out at 0.362.
`CCOC(=O)c1c(CN(C)C)n(-c2ccccc2)c2cc(Br)c(OC)cc12` showed a z-score of 0.186.
Consider `c1ccc(Nc2nnc(SCc3cccc4ccccc34)s2)cc1`, for which the z-score is 0.286.
For `COC(=O)CSC1=C(C#N)C(=O)NC(c2ccccc2)S1` (configuration not stated), the z-score is -0.603.
As for `O=C(Cn1cc[n+](CC(=O)c2ccccc2)c1)c1ccccc1`, the z-score was -0.184.
`Cc1ccc(/C=C/C(=O)N2CCC(Cc3ccccc3)CC2)cc1` displayed a z-score of -0.288.
`Cc1ccc(S(=O)(=O)/N=C/N(C)C)cc1` displayed a z-score of 0.0462.
`COc1cccc(OCC(=O)Nc2ccc(OC)c(OC)c2)c1` displayed a z-score of 0.535.
For the compound `c1ccc(Nc2nc(N3CCCC3)nc(N3CCCC3)n2)cc1`, the z-score was -0.0932.
`FC(F)(F)c1nnc(-c2ccccc2)nc1Oc1ccccc1` registered a z-score of -0.233.
With `CC(=O)NC(Cc1cccc(C)c1)C(=O)NC1CCN(c2ncccc2[N+](=O)[O-])CC1` (configuration not stated) the figure was -0.444; with `Cc1cccc(NC(=O)CN(c2ccc(C(C)C)cc2)S(=O)(=O)c2c(C)nn(C)c2C)n1`, 2.21.
For `CSc1c(SCc2ccccc2)cnn(Cc2ccccc2)c1=O`, the z-score is -0.945.
The compound `COc1ccc(N2CCN(C(=O)CSc3nnc4c(C)cc5ccccc5n34)CC2)cc1` yielded a z-score of -0.18.
`Fc1ccc(NC(=S)Nc2cccc(Cl)c2)cc1` came in with a z-score of 1.26.
In the case of `CCn1cc(/C=N/NC(=O)c2ccc3c(c2)OCO3)cn1`, the z-score is -0.194.
Turning to `O=C(Nc1ccon1)c1cc2c(s1)CCCCCC2`, the z-score was -0.664.
In turn, `O=P(COc1ccccc1)(c1ccccc1)c1ccccc1` yielded a z-score of -0.356.
Compound `CCCCCCCCNC(=O)c1cccnc1SCC(=O)Nc1ccccc1OC` returned a z-score of -0.724.
Consider `CCOC(=O)c1c(C(C)(C)C)oc2ccc(O)cc12`, for which the z-score is -0.177.
In the case of `CC(C)CN(CC(C)C)S(=O)(=O)c1cc([N+](=O)[O-])ccc1N1CCCCCC1`, the z-score was -0.0703.
The compound `COC(=O)CSc1nnc(NC(=O)/C=C\c2ccc3c(c2)OCO3)s1` registered a z-score of 0.115.
Take `CCCC(=O)Nc1nc2ccc(NC(=O)c3cccnc3)cc2s1`: the z-score was 1.81.
Consider `O=C(Cc1cccs1)N(Cc1cccs1)C1(C(=O)NC2CCCC2)CCCCC1`, for which the z-score turned out to be 0.556.
With `Cc1ccc(NC(=O)N(C2CCCCC2)C(C)c2cccnc2)cc1C` (configuration not stated) the figure was 0.127.
`CCOC(=O)N1CCN(C(=S)NC(=O)c2ccnn2C)CC1`: the z-score is -0.125.
As for `COc1ccc(/C=C/c2nc3sc4c(c3c(=O)o2)CCC4)cc1`, the z-score is active: -3.25.
Compound `COc1cc(OC)c(C2N(c3ccc(Cl)c(Cl)c3)C(=O)C3CCCN32)cc1OC` (configuration not stated) gave a z-score of 0.743.
In turn, `COc1ccc(CCC(=O)NCCc2cn3c(C)csc3n2)cc1` displayed a z-score of -0.294.
`Cc1ccc(C)c(NC(=S)c2ccc3ccccc3n2)c1` showed a z-score of 0.103.
The compound `CCCCn1c2nc3ccccc3nc2c2c(=O)n(CCC)cnc21` displayed a z-score of -0.275.
Compound `CCOc1nc(NC(=O)NS(=O)(=O)Oc2ccccc2Cl)nc(-c2ccccc2)n1` gave a z-score of -0.308.
`CN(CC(=O)NCCN1CCCCCC1)S(=O)(=O)c1cccc2nsnc12` yielded a z-score of 0.696.
With `CC1(C)Cc2cccc(OCC(=O)Nc3nccs3)c2O1` the figure was -0.16; with `COc1ccc(N=C2NN=C(c3ccc4c(c3)OCCO4)CS2)cc1`, 0.00257.
To `O=C(Nc1cccc(Cl)c1)c1ccc(Cn2cc(Cl)cn2)cc1` belongs -0.352.
Compound `COc1ccc(CN(C(=O)Cc2c[nH]c3ccccc23)C(C(=O)NC2CCCCC2)c2ccc(C)o2)cc1` (configuration not stated) had a z-score of -0.212.
